In the supplement of paper PMC7826260:
Some of the results follow. The data describe in vitro nicking of single-stranded DNA by Rep domains for 1 h at 37 °C with 3 µM enzyme; only the middle of the 90-letter strands is printed. Numbers give uncut DNA relative to the enzyme-free pool, as log2; uncut sequences lie near 0, cut ones below; no hit call is given. Shares of all reads are compared, so uncut sequences can rise above 0 when many others are cut.

Each sequence was assayed on T1, Rep nickase domain of tomato golden mosaic virus (assay: uncleaved DNA left, log2 of reads against the no-enzyme library (log2 ratio); higher = less cleavage (more negative = more Rep cleavage of the k-mer); sequences stand for … in CTCGTCCG…ACCGGAGA).
T1 sequence (protein, residues 1-124, tag omitted): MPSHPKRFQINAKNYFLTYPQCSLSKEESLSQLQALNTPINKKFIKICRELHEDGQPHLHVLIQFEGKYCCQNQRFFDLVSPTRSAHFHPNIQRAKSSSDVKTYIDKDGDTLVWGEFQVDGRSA
Experimental: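 A pool of 90-nt single-stranded DNAs with seven random bases just before the constant AC of the nick site (name = the seven bases) was cut by 3 µM recombinant His6-SUMO-tagged Rep nickase domain (300 nM DNA, 50 mM HEPES pH 8.0, 50 mM NaCl, 1 mM MnCl2, 1 h, 37 °C, three replicates). Uncut DNA was amplified and sequenced.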

Sequence	uncleaved DNA left (log2)
ATGACTA	-0.0706
CACGTGT	0.00273
AGGATAT	0.109
GAAAGAC	-0.0425
TTCCCGC	-0.115
CCATTCC	-0.13
GGAGCGT	-0.0675
AGCTAGA	0.0676
TAGACTT	-0.0835
CCTACGA	0.0194
ATACCCG	-0.0605
GGATATG	-0.0333
GCACACA	-0.0917
CGAGGCG	-0.0627
ATAGGCT	0.125
CGCCGCG	-0.217
AACATCC	-0.0593
GGCGTTC	-0.0568
AGGTTCG	0.15
GTCCAAG	0.171

Sequence	uncleaved DNA left (log2)
GACTATG	-0.0953
GGCCGAC	0.0985
CAAACAA	0.0428
CGCGAGG	0.169
GTACCCA	0.0376
GACGTCC	-0.129
AAACGGA	0.0816
GCTCTGC	-0.0775
CTTCGAG	0.0159
GGCAACG	0.0903
GGTGTGC	-0.0665
ACTTTGT	0.0504
TGTTAAC	0.0171
CGACGCA	-0.00442
AGCCTTT	-0.339
TAGTCAT	0.0665
GCTCAGT	0.0897
CTATCCA	0.0495
TCAACTG	0.0377
GATATTA	0.129
